Experimental data published in patent US8753644B2, “Grass peptides for vaccine” (Circassia Limited, priority 2009, dated 2014).
Not every detail of the peptide structures is certain; ends, links or a residue may be inferred. No end group written: not given here.

System: peripheral blood mononuclear cells (PBMCs) from grass allergic individuals
Assay: In vitro T cell cytokine release assay (IFN-γ, IL-10, IL-13) in PBMC cultures
Assay type: cell-based, human
Conditions: for >18/48 +ve for one or more cytokine? / IFN-γ +ve/48 / IL-10 +ve/48 / IL-13 +ve/48 / ≧9/28 +ve for one or more cytokine? / IFN-γ +ve/28 / IL-10 +ve/28 / IL-13 +ve/28: single peptide; for >18/48 +ve for one or more cytokine?: group of 48 subjects; for IFN-γ +ve/48 / IL-10 +ve/48 / IL-13 +ve/48: number of 48 grass allergic subjects positive (reading > four times control well); for Total score: sum of the number of responders for the three cytokines, 48 subjects; for ≧9/28 +ve for one or more cytokine?: group of 28 subjects; for IFN-γ +ve/28 / IL-10 +ve/28 / IL-13 +ve/28: number of 28 grass allergic subjects positive (reading > four times control well)

Sequence | >18/48 +ve for one or more cytokine? | IFN-γ +ve/48 | IL-10 +ve/48 | IL-13 +ve/48 | Total score | ≧9/28 +ve for one or more cytokine? | IFN-γ +ve/28 | IL-10 +ve/28 | IL-13 +ve/28
FKAAVAAAASVPAADKFK [Tim05A] | No | 15 +ve/48 | 9 +ve/48 | 12 +ve/48 |  |  |  |  | 
KWLDAKSTWYGKPTGAG [Rye01A] | No | 2 +ve/48 | 4 +ve/48 | 4 +ve/48 |  |  |  |  | 
YKFIPALEAAVKQAY [Tim08] | No | 16 +ve/48 | 14 +ve/48 | 17 +ve/48 |  |  |  |  | 
FIPMKSSWGA [Ber02] | Yes | 26 +ve/48 | 15 +ve/48 | 21 +ve/48 | 62 |  |  |  | 
HAFGAMAKKGDEQKLRSAG [Tim02A] | No | 6 +ve/48 | 2 +ve/48 | 9 +ve/48 |  |  |  |  | 
KSSWGAIWRIDPKKPLK [Ber02C] | Yes | 29 +ve/48 | 9 +ve/48 | 18 +ve/48 | 56 |  |  |  | 
FKAAVAAAANAPPADKFK [Rye05A] | No | 13 +ve/48 | 3 +ve/48 | 10 +ve/48 |  |  |  |  | 
PEESYKFIPALEAAVKQAY [Tim08A] | Yes | 21 +ve/48 | 8 +ve/48 | 10 +ve/48 |  |  |  |  | 
YKFIPTLVAAVKQAYAAKQ [Bio03B] |  |  |  |  |  | Yes | 13 +ve/28 | 4 +ve/28 | 8 +ve/28
IPANWKPDTVYTSK [Ber03A] | Yes | 8 +ve/48 | 23 +ve/48 | 7 +ve/48 |  |  |  |  | 
WGAVWRIDTPDKL [Rye04] | No | 6 +ve/48 | 1 +ve/48 | 3 +ve/48 |  |  |  |  | 
PEVKYAVFEAALTKAIT [Rye09B] | Yes | 28 +ve/48 | 16 +ve/48 | 24 +ve/48 | 68 |  |  |  | 
KFIPTLVAAVKQAYAAKQ [Bio03A] | Yes | 26 +ve/48 | 9 +ve/48 | 19 +ve/48 | 54 |  |  |  | 
KFDSFVASLTEALR [Tim06A] | No | 17 +ve/48 | 11 +ve/48 | 11 +ve/48 |  |  |  |  | 
SGKAFGAMAKKGQED [Ber01, SGKAFGAMAKKGQED] | Yes | 35 +ve/48 | 34 +ve/48 | 22 +ve/48 | 91 |  |  |  | 
FENTFNNAIKVSLG [Rye16] |  |  |  |  |  | No | 4 +ve/28 | 4 +ve/28 | 3 +ve/28
APYHFDLSGHAFGS [Rye12] |  |  |  |  |  | Yes | 10 +ve/28 | 5 +ve/28 | 8 +ve/28
LTKAITAMTQAQKAGK [Rye09A] | No | 6 +ve/48 | 11 +ve/48 | 5 +ve/48 |  |  |  |  | 
PETALKKAVTAMSEAEK [Bio04B] | Yes | 22 +ve/48 | 27 +ve/48 | 16 +ve/48 |  |  |  |  | 

Sequence | >18/48 +ve for one or more cytokine? | IFN-γ +ve/48 | IL-10 +ve/48 | IL-13 +ve/48 | Total score | ≧9/28 +ve for one or more cytokine? | IFN-γ +ve/28 | IL-10 +ve/28 | IL-13 +ve/28
KDSDEFIPMKSSWGAIWR [Ber02B] | Yes | 22 +ve/48 | 3 +ve/48 | 17 +ve/48 | 42 |  |  |  | 
PEAKYDAFVTALTEALR [Rye06B] | No | 11 +ve/48 | 5 +ve/48 | 7 +ve/48 |  |  |  |  | 
WGAIWRIDPKKPL [Ber02A] | No | 17 +ve/48 | 7 +ve/48 | 15 +ve/48 |  |  |  |  | 
FGSMAKKGEEQNVRSAG [Rye02] | No | 4 +ve/48 | 1 +ve/48 | 5 +ve/48 |  |  |  |  | 
NAGFKAAVAAAANAPPK [Rye05C] | Yes | 20 +ve/48 | 12 +ve/48 | 19 +ve/48 | 51 |  |  |  | 
LKKAVTAMSEAEK [Bio04A] | Yes | 28 +ve/48 | 37 +ve/48 | 16 +ve/48 | 81 |  |  |  | 
KYDAYVATLTEALR [Bio02A] | Yes | 15 +ve/48 | 31 +ve/48 | 12 +ve/48 | 58 |  |  |  | 
KESWGAVWRIDTPDKL [Rye04A] | No | 8 +ve/48 | 2 +ve/48 | 4 +ve/48 |  |  |  |  | 
KYAVFEAALTKAITAMT [Rye09D] |  |  |  |  |  | Yes | 6 +ve/28 | 13 +ve/28 | 4 +ve/28
DKFKIFEAAFSESSK [Rye11] |  |  |  |  |  | Yes | 4 +ve/28 | 3 +ve/28 | 10 +ve/28
KFTVFESAFNKALNE [Bio05B] | Yes | 8 +ve/48 | 34 +ve/48 | 8 +ve/48 |  |  |  |  | 
DVAYKAAEAHPRGQ [Rye14] |  |  |  |  |  | No | 5 +ve/28 | 0 +ve/28 | 3 +ve/28
KYDAFVTALTEALR [Rye06A] | No | 11 +ve/48 | 5 +ve/48 | 15 +ve/48 |  |  |  |  | 
HAFGMAKKGEEQNVRSAG [Rye02A] | No | 12 +ve/48 | 1 +ve/48 | 6 +ve/48 |  |  |  |  | 
FGAMAKKGDEQKLRSAG [Tim02] | No | 16 +ve/48 | 3 +ve/48 | 6 +ve/48 |  |  |  |  | 
KESWGAVWRIDTPDKLGP [Rye04B] |  |  |  |  |  | No | 3 +ve/28 | 0 +ve/28 | 6 +ve/28
TPLRRTSSRSSRP [Rye13] |  |  |  |  |  | No | 6 +ve/28 | 0 +ve/28 | 1 +ve/28
DSYKFIPTLVAVK [Rye08B] |  |  |  |  |  | No | 2 +ve/28 | 1 +ve/28 | 3 +ve/28
WGAIWRIDTPDKL [Tim04A] | Yes | 16 +ve/48 | 31 +ve/48 | 4 +ve/48 | 51 |  |  |  | 
